Data taken from US20100055093A1 (RECEPTOR BIOLOGIX, published 2010).
Values belong to the binder of their own block, whether it stands above or below them.

Key:
[1] = target: T1, epidermal growth factor (EGF) (human, UniProt P01133 971-1023); test: 125I-ligand cross-linking (FIG. 6a)
T1 construct: also called Eu-EGF

[2] = target: T2, neuregulin-1 beta 1 (NRG1β1) (human, UniProt Q02297-6 177-241, limits assumed); test: 125I-HRG cross-linking (BS3), SDS-PAGE autoradiography
T2 construct: also called HRG; heregulin
T2 sequence (looked up): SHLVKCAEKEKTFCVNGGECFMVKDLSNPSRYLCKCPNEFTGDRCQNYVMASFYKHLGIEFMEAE

[3] = target: T2, neuregulin-1 beta 1 (NRG1β1); test: Eu-NRG1β1 binding capacity (DELFIA)
[4] = target: the molecule itself; test: self-association by size exclusion chromatography (apparent over calculated molecular weight)
[5] = target: T1, epidermal growth factor (EGF); test: ligand binding screen on anti-Fc plates
T1 sequence (P01133 971-1023 limits assumed): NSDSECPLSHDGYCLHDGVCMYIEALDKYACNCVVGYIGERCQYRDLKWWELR

[6] = target: heparin-binding EGF (HB-EGF) (UniProt Q99075 63-148, limits assumed); test: ligand binding screen on anti-Fc plates
Chain of UniProt Q99075 (Q99075 63-148 limits assumed): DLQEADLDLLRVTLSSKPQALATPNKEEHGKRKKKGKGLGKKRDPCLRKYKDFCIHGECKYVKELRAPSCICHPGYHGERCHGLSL

[7] = target: T3, transforming growth factor alpha (TGF-α) (UniProt P01135 40-89); test: ligand binding screen on anti-Fc plates
T3 construct: also called TGF-alpha; TGF-a

binding result [1]: no binding
binding result [2]: no binding (tested: 5 nM 125I-HRG)
B1: HER[…]/Fc (Fc fusion)
chain: not shown
notes: Tested as conditioned medium; also called HFD200; HF200-Fc

NRG1β1 binding activity relative to the heterodimers (RB200h, RB220h) [3]: 30%
B2: HER3-621/Fc homodimer (Fc fusion)
chain: SEVGNSQAVCPGTLNGLSVTGDAENQYQTLYKLYERCEVVMGNLEIVLTGHNADLSFLQWIREVTGYVLVAMNEFSTLPLPNLRVVRGTQVYDGKFAIFVMLNYNTNSSHALRQLRLTQLTEILSGGVYIEENDKLCHMDTIDWRDIVRDRDAEIVVKDNGRSCPPCHEVCKGRCWGPGSEDCQTLTKTICAPQCNGHCFGPNPNQCCHDECAGGCSGPQDTDCFACRHFNDSGACVPRCPQPLVYNKLTFQLEPNPHTKYQYGGVCVASCPHNFVVDQTSCVRACPPDKMEVDKNGLKMCEPCGGLCPKACEGTGSGSRFQTVDSSNIDGFVNCTKILGNLDFLITGLNGDPWHKIPALDPEKLNVFRTVREITGYLNIQSWPPHMHNFSVFSNLTTIGGRSLYNRGFSLLIMKNLNVTSLGFRSLKEISAGRIYISANRQLCYHHSLNWTKVLRGPTEERLDIKHNRPRRDCVAEGKVCDPLCSSGGCWGPGPGQCLSCRNYSRGGVCVTHCNFLNGEPREFAHEAECFSCHPECQPMGGTATCNGSGSDTCAQCAHFRDGPHCVSSCPHGVLGAKGPIYKYPDVQNECRPCHENCTQGCKGPELQDCLGQTLVLIGKTGGGGG[letters of human IgG1 Fc left out]
notes: also called HFD300; HFD300T
M. Wt. (ap):M. Wt. [4]: 4.69

binding result [5]: binds
B3: HFD100 mutant S193N/E330D/G588S (Fc fusion)
chain: LEEKKVCQGTSNKLTQLGTFEDHFLSLQRMFNNCEVVLGNLEITYVQRNYDLSFLKTIQEVAGYVLIALNTVERIPLENLQIIRGNMYYENSYALAVLSNYDANKTGLKELPMRNLQEILHGAVRFSNNPALCNVESIQWRDIVSSDFLSNMSMDFQNHLGSCQKCDPNCPNGSCWGAGEENCQKLTKIICAQQCSGRCRGKSPSDCCHNQCAAGCTGPRESDCLVCRKFRDEATCKDTCPPLMLYNPTTYQMDVNPEGKYSFGATCVKKCPR[letters of about 600 residues with a human IgG1 Fc left out]

binding result [5]: binds
binding result [6]: binds
binding result [7]: binds
B4: HFD100 mutant T43K/S193N/E330D/G588S (Fc fusion)
chain: LEEKKVCQGTSNKLTQLGKFEDHFLSLQRMFNNCEVVLGNLEITYVQRNYDLSFLKTIQEVAGYVLIALNTVERIPLENLQIIRGNMYYENSYALAVLSNYDANKTGLKELPMRNLQEILHGAVRFSNNPALCNVESIQWRDIVSSDFLSNMSMDFQNHLGSCQKCDPNCPNGSCWGAGEENCQKLTKIICAQQCSGRCRGKSPSDCCHNQCAAGCTGPRESDCLVCRKFRDEATCKDTCPPLMLYNPTTYQMDVNPEGKYSFGATCVKKCPR[letters of about 600 residues with a human IgG1 Fc left out]
notes: Tested as conditioned medium captured on anti-Fc plates; also called quad mutant
